In all, about 360,000 compounds went through this assay and about 16,000 (4.4%) were called active. Inconclusive means that the source gave no clear call. Such entries were picked first, then a sample of the others. The call rests on the fitted dose curve; in most records, active means well fitted inhibition curve with a large enough effect; inconclusive means small, poorly fitted or top-dose-only effect; inactive means no such curve, though single readings can be large or run the other way. Where the call is inconclusive, the potency comes from a doubtful curve fit.
biological target: Bromodomain adjacent to zinc finger domain protein 2B (Homo sapiens) (UniProt Q9UIF8); assay: qHTS Assay for Inhibitors of BAZ2B; conditions: AlphaScreen BAZ2B-H3K14Ac peptide displacement; activity change, negative = inhibition: at 114 µM (top of the series) unless noted; further: nearly all actives have a fitted effect of over 60% in size
Sequence of UniProt Q9UIF8 (Q9UIF8 whole entry, looked up, the tested form may be a part): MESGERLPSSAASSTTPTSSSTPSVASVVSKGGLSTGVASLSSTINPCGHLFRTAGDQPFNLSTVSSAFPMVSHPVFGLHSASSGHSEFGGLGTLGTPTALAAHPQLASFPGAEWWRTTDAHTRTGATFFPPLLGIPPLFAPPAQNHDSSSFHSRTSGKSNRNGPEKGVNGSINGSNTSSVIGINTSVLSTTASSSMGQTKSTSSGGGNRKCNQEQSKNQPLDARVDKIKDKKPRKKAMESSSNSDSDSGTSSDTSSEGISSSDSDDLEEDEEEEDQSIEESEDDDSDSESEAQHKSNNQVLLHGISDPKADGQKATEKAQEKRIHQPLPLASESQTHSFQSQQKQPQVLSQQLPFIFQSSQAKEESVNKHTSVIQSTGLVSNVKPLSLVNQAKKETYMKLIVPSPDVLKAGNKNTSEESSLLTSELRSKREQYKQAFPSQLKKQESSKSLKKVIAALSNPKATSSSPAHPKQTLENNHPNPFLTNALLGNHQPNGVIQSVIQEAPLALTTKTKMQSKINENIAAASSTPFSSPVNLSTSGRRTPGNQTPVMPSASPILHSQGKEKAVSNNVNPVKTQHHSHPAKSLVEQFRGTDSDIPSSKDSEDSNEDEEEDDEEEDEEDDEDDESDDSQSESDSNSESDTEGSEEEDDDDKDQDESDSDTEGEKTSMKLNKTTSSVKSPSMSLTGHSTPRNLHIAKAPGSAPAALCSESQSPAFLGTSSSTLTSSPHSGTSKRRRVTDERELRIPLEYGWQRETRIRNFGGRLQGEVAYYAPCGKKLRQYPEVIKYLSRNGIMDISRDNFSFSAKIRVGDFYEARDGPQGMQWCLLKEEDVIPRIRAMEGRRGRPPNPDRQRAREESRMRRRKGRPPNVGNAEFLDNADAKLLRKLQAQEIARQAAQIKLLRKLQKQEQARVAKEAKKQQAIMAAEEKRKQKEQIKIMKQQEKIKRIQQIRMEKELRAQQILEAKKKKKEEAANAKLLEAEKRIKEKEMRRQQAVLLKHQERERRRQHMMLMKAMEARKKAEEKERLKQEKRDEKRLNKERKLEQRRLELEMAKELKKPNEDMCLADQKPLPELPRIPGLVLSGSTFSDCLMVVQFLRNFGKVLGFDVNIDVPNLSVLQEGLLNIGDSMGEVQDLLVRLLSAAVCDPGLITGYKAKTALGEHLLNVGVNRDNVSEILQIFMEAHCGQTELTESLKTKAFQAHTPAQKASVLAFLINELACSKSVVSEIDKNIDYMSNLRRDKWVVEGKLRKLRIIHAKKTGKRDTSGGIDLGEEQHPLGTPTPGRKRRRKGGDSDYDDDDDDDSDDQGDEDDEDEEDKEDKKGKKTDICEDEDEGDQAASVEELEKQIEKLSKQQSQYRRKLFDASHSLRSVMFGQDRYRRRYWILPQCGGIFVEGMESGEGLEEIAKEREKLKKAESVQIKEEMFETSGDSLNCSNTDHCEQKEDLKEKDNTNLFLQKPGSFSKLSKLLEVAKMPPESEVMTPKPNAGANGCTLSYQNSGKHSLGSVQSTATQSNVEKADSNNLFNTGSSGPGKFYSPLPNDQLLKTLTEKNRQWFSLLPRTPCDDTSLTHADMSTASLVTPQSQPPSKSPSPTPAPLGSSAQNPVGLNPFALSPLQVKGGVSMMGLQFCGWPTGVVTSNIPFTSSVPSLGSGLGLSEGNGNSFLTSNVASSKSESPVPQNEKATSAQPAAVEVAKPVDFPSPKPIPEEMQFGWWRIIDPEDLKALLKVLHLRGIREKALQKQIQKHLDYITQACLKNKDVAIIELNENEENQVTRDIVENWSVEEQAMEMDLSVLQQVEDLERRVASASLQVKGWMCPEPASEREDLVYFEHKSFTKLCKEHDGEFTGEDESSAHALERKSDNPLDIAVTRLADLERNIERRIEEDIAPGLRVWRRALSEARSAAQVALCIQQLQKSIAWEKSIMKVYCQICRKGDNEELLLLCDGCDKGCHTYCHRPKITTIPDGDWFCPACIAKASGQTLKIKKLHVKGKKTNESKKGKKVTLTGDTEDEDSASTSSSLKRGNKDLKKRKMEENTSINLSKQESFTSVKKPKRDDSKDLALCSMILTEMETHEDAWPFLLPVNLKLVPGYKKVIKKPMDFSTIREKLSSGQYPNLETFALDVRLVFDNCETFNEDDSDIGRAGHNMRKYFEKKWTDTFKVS
Outline: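 Complex of BAZ2B and biotin-H3K14Ac (50 nM apiece) forms over 30 min at RT, then faces library compounds up to 110 uM for another 30 min; AlphaScreen beads added, 20 min dark incubation, luminescence read.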
On the % scale 0 is the no-effect control and ±100 the full control effect; potency means the concentration at half of the fitted maximal effect; tags describe the fitted curve by direction and shape.

Q: How did the “activity change, negative = inhibition” value turn out when Cc1ccn2c(c1)nc(=S)n2C(=O)c1ccco1 was run?
A: Its value is inactive: -1.53%.

Q: With CCC(CO)Oc1cc(NC(=O)c2ccccc2)c2ncn(C(C)C)c2c1 (stereo not drawn) as the compound, how does the Potency read?
A: The Potency was inconclusive: 89.1 µM [inhibitor, single point].

Q: How did the Potency turn out when COCCn1nnnc1C(c1ccccc1OC)N1CCN(c2ccccc2F)CC1 (stereo not drawn) was run?
A: Its Potency is inconclusive: 89.1 µM [inhibitor, single point].

Q: With O=C(C1CCCN(Cc2ccc3c(c2)OCO3)C1)N1CCCC1 (stereo not drawn) as the compound, how does the Potency read?
A: Its Potency is active: 56.2 µM.

Q: How did the “activity change, negative = inhibition” value turn out when O=C(/C=C/c1ccco1)c1cccnc1 was run?
A: The value was inactive: -33.2%.

Q: Which Potency does the source give for N#C/C(=C\c1ccc(Sc2ccc(Cl)cc2)o1)c1nc2ccccc2[nH]1 here?
A: The Potency was inconclusive: 89.1 µM [inhibitor, single point].

Q: With Cc1ccc(NC(=O)Cn2c(=S)[nH]c3ccccc32)cc1 as the compound, how does the “activity change, negative = inhibition” value read?
A: The value was inactive: -0.369%.

Q: With O=C1CN(CC(=O)N2CCOCC2)c2ccccc2O1 as the compound, how does the Potency read?
A: Its Potency is inconclusive: 79.4 µM [inhibitor, partial curve].

Q: CCCN(CC(=O)Nc1ccccc1OC)Cc1c(O)ccc2ccccc12 was tested. Which Potency did it give?
A: The Potency was inconclusive: 89.1 µM [inhibitor, single point].

Q: With COc1ccc(S(=O)(=O)N2CCN(c3nc(-c4cccnc4)nc4ccccc34)CC2)cc1 as the compound, how does the “activity change, negative = inhibition” value read?
A: Its value is inactive: -2.37%.

Q: How did the Potency turn out when O=C1N=C(c2ccccc2)C(c2ccccc2)N1 (stereo not drawn) was run?
A: Its Potency is inconclusive: 44.7 µM [inhibitor, partial curve].

Q: For CCN(c1ccccc1)S(=O)(=O)c1nnc(NC(=O)c2ccccc2)s1, which Potency is on record?
A: The Potency was inconclusive: 89.1 µM [inhibitor, single point].

Q: With CC(C)(C)c1nnc(NC(=O)C2c3ccccc3Oc3ccccc32)s1 as the compound, how does the Potency read?
A: The Potency was inconclusive: 79.4 µM [inhibitor, partial curve].

Q: How did the Potency turn out when CCOC(=O)C1=C(c2ccccc2)N=c2s/c(=C\c3ccc(O)cc3)c(=O)n2C1c1cccs1 (stereo not drawn) was run?
A: Its Potency is inconclusive: 79.4 µM [inhibitor, single point].

Q: For Cc1nc2ccccc2n1CC(=O)c1ccc(O)c(O)c1, which Potency is on record?
A: The Potency was inconclusive: 89.1 µM [inhibitor, single point].

Q: CCc1nc2ccc(C(=O)Nc3ccc4c(c3)OCO4)cc2nc1CC was tested. Which Potency did it give?
A: The Potency was inconclusive: 25.1 µM [inhibitor, full curve].

Q: O=C(/C=C/c1ccco1)Nc1cccc(NC(=O)/C=C/c2ccco2)n1 was tested. Which Potency did it give?
A: Its Potency is inconclusive: 22.4 µM [inhibitor, partial curve].

Q: Which Potency does the source give for C#CCOCCOCCOCCNc1nc(N2CCN(C(=O)[C@H]([C@@H](C)CC)n3cc(CCCN=C(N)N)nn3)CC2)nc(N2CCN(C(=O)[C@H]([C@@H](C)CC)n3cc(CCCN=C(N)N)nn3)CC2)n1 here?
A: The Potency was inconclusive: 89.1 µM [inhibitor, single point].

Q: With Nc1nn(-c2ccccc2)c2ccc([N+](=O)[O-])cc12 as the compound, how does the Potency read?
A: The Potency was inconclusive: 50.1 µM [inhibitor, partial curve].

Q: With COc1ccc(/C=C/C2=CCN(Cc3ccc(OC)cc3)CC2)cc1 as the compound, how does the Potency read?
A: The Potency was inconclusive: 70.8 µM [inhibitor, single point].

Q: Which Potency does the source give for COc1ccc(NS(=O)(=O)c2ccc(-c3coc(C)n3)cc2)cc1OC here?
A: The Potency was inconclusive: 79.4 µM [inhibitor, single point].

Q: Which “activity change, negative = inhibition” value does the source give for COc1ccc(NC(=O)CSc2oc(-c3ccc(F)cc3)nc2S(=O)(=O)c2ccc(C)cc2)c(OC)c1 here?
A: Its value is inactive: -20.1%.

Q: O=C(c1ccc(Cl)c(S(=O)(=O)N2CCOCC2)c1)N1CCOCC1 was tested. Which “activity change, negative = inhibition” value did it give?
A: The value was inactive: 7.7%.

Q: For Cc1ccnc(NC(=O)c2ccc([N+](=O)[O-])o2)c1, which Potency is on record?
A: The Potency was active: 56.2 µM.

Q: How did the Potency turn out when CCN(CC)S(=O)(=O)c1cccc(NC(=O)CN2C(=O)c3ccc([N+](=O)[O-])cc3C2=O)c1 was run?
A: The Potency was inconclusive: 79.4 µM [inhibitor, single point].

Q: For COc1ccccc1C(=O)Nc1cccc(-c2cn3ccsc3n2)c1, which Potency is on record?
A: Its Potency is inconclusive: 50.1 µM [inhibitor, partial curve].

Q: Which Potency does the source give for COc1ccc(-n2c(C)cc(C(=O)COC(=O)Cc3n[nH]c(=O)c4ccccc34)c2C)cc1 here?
A: Its Potency is inconclusive: 44.7 µM [inhibitor, partial curve].

Q: O=C1CC(=O)N(CCc2ccccc2)C(=O)N1CCc1ccccc1 was tested. Which Potency did it give?
A: The Potency was inconclusive: 100 µM [inhibitor, single point].

Q: With CCc1ccc(NC(=S)NC2CC3CCCC(C2)N3Cc2cccs2)cc1 (stereo not drawn) as the compound, how does the Potency read?
A: The Potency was inconclusive: 39.8 µM [inhibitor, partial curve].

Q: For COc1ccc(C(=O)Nc2ccc(N3CCN(C(=O)c4ccccc4)CC3)cc2)cc1[N+](=O)[O-], which Potency is on record?
A: Its Potency is inconclusive: 70.8 µM [inhibitor, single point].

Q: How did the “activity change, negative = inhibition” value turn out when O=C(CN1CCN(S(=O)(=O)c2ccccc2)CC1)Nc1ccc(N2CCOCC2)cc1 was run?
A: The value was inactive: -5.39%.

Q: With Cc1ccc(Cl)cc1NC(=S)N(Cc1cccnc1)Cc1ccccc1Cl as the compound, how does the Potency read?
A: Its Potency is inconclusive: 89.1 µM [inhibitor, single point].

Q: Which Potency does the source give for O=C(Nc1nccs1)c1ccc(-c2ccc(F)c(Cl)c2)o1 here?
A: Its Potency is inconclusive: 79.4 µM [inhibitor, single point].

Q: Which Potency does the source give for COc1cc([N+](=O)[O-])cc(/C=N/NC(=O)CC#N)c1O here?
A: Its Potency is active: 8.91 µM.

Q: How did the Potency turn out when CC(C)(C)S(=O)(=O)c1cnc(-c2ccccn2)nc1N was run?
A: The Potency was active: 79.4 µM.

Q: With O=C(NCCCN1CCCC1)C1CCN(C(=O)c2cc3sccc3n2Cc2ccc(F)cc2)CC1 as the compound, how does the Potency read?
A: Its Potency is inconclusive: 50.1 µM [inhibitor, partial curve].

Q: How did the Potency turn out when c1ccc2c(c1)nc(N1CCOCC1)c1c3ccccc3[nH]c21 was run?
A: Its Potency is inconclusive: 89.1 µM [inhibitor, single point].

Q: Which activity change, negative = inhibition does the source give for C=CCN1C(c2ccccc2)=CS/C1=C(\C#N)c1nnc2n1CCCCC2 here?
A: The activity change, negative = inhibition was inconclusive: -65.9% [inhibitor].

Q: For CCOC(=O)CCn1cnc2onc(-c3cc(OC)ccc3Cl)c2c1=O, which “activity change, negative = inhibition” value is on record?
A: The value was inactive: -3.27%.

Q: Which Potency does the source give for Cc1ccccc1Nc1nc(-c2sc(NC(=O)c3ccccc3)nc2C)cs1 here?
A: Its Potency is inconclusive: 89.1 µM [inhibitor, single point].

Q: How did the Potency turn out when C=CCn1c(=O)/c(=C/c2cc(OC)c(OC)c(OC)c2)s/c1=C(/C#N)c1nc2ccccc2n1C was run?
A: Its Potency is inconclusive: 39.8 µM [inhibitor, partial curve].

Q: For Cc1cc(=O)[nH]c2nnc(SCc3c(F)cccc3Cl)n12, which “activity change, negative = inhibition” value is on record?
A: The value was inactive: 0.0541%.

Q: How did the Potency turn out when CCN1CCCc2cc(CN(CCN3CCOCC3)C(=S)Nc3ccccc3OC)ccc21 was run?
A: The Potency was active: 39.8 µM.

From PubChem BioAssay AID504333 (National Center for Advancing Translational Sciences (NCATS), 2011)
